According to publication PMC5986769:
No constants are given. Whether binding was seen depends on the method and setting. Binding seen in cells or lysates may run through a third protein. Some entries that bind do so weakly or less than the wild type.

Protein sequences, listed by entry. Tags and fused reporters are not part of them. Lines headed by an entry give the natural chain unless they say otherwise; changes in a name come on top. Residues count along the entry.
UniProt Q5XIH7: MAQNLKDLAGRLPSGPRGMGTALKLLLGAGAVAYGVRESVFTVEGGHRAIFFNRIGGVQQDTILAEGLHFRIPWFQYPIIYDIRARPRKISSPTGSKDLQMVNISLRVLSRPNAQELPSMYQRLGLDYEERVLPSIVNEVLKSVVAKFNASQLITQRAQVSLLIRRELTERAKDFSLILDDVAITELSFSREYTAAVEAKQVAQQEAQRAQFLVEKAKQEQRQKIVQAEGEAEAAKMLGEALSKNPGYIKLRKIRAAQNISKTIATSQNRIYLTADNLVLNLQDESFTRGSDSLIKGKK
UniProt P35444, residues 20-755: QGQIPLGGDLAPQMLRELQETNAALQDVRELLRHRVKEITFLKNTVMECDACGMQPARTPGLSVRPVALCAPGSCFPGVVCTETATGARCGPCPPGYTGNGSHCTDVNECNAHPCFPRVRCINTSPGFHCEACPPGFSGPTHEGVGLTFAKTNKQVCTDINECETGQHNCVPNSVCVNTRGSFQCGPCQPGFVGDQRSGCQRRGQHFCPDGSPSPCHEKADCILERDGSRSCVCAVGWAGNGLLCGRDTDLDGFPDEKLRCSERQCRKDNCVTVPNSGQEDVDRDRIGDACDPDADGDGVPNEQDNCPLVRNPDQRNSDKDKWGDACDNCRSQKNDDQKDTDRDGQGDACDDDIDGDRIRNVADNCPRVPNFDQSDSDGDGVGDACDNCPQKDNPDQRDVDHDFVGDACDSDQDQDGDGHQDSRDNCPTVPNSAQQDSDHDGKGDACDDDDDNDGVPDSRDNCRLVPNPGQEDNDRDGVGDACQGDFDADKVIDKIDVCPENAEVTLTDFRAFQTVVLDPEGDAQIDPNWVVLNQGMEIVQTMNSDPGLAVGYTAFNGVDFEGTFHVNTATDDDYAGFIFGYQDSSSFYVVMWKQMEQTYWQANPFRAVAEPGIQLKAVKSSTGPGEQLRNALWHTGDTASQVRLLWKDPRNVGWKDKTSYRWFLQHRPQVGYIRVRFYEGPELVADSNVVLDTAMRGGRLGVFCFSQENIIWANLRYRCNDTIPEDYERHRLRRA
UniProt Q9R0G6: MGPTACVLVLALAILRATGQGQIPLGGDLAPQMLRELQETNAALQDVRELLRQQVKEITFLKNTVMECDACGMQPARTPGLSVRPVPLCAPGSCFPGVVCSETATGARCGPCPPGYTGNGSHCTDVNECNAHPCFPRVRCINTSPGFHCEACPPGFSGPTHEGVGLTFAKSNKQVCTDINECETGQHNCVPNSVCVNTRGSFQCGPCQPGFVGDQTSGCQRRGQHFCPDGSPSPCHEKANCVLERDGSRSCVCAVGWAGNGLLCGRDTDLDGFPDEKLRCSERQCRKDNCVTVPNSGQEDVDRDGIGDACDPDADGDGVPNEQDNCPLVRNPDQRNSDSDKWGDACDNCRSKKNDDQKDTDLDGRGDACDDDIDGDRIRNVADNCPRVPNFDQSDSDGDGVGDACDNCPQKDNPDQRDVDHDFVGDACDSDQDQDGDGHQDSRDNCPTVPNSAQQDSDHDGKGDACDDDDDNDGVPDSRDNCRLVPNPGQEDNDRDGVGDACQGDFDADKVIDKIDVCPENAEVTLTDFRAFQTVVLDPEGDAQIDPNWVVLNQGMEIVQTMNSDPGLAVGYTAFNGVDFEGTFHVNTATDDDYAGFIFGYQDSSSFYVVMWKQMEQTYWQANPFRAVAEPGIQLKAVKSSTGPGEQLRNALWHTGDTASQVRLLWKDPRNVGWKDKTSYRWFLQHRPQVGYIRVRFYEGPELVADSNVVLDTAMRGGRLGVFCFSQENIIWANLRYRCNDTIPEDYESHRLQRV
Flag-COMP, full-length mouse COMP with N-terminal FLAG, in HEK293A cells: residues 20-755 of Q9R0G6
flag-COMP N-terminus (aa 1-83): residues 20-83 of Q9R0G6
flag-COMP epidermal growth factor (EGF) repeat domain (aa 84-261): residues 84-261 of Q9R0G6
flag-COMP type III repeat domain (aa 266-520): residues 266-520 of Q9R0G6
flag-COMP C-terminus (aa 521-755): residues 521-755 of Q9R0G6
UniProt P10719, residues 47-529: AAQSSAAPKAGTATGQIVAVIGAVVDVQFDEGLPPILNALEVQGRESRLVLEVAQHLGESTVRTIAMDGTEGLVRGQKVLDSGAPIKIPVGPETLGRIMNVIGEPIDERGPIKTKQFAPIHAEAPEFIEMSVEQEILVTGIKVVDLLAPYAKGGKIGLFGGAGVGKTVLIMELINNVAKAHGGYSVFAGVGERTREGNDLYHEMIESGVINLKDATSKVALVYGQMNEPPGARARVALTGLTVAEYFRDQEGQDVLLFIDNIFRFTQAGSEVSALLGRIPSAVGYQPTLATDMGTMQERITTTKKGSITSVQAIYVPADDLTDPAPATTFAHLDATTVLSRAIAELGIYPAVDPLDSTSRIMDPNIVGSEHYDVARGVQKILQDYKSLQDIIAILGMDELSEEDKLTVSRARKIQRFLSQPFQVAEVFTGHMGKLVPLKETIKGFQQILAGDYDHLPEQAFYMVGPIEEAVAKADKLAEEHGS
UniProt O35129, residues 201-299: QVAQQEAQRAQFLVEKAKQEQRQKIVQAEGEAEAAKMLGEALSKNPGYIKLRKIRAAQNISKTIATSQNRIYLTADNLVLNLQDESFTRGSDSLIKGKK

Key:
[1] = target: T1, Prohibitin 1, endogenous in VSMCs (UniProt P67779); test: co-IP; endogenous proteins of VSMCs (mitochondrial fraction for prohibitin 2); anti-COMP or anti-prohibitin 2 antibody against control IgG; western blot
T1 sequence: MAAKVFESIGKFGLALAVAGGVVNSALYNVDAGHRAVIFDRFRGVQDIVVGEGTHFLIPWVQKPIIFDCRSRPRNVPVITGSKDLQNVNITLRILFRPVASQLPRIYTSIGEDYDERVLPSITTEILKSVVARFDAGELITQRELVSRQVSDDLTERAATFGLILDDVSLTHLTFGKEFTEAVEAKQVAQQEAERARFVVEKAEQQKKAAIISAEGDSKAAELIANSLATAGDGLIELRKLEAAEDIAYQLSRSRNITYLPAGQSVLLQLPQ

[2] = target: Prohibitin 2, endogenous in VSMCs (rat (endogenous in rat VSMCs)) (UniProt Q5XIH7); test: as above
[3] = target: Cartilage oligomeric matrix protein (COMP), endogenous in VSMCs (rat (endogenous in rat VSMCs)) (UniProt P35444); test: as above
[4] = target: flag-COMP C-terminus (aa 521-755) (mouse) (UniProt Q9R0G6); test: co-IP; COS-7 cells co-transfected with pcDNA3.1-prohibitin 2 and flag-COMP full length or single domains; precipitated with flag antibody against IgG; blot with anti-prohibitin 2 antibody
[5] = target: flag-COMP N-terminus (aa 1-83) (mouse) (UniProt Q9R0G6); test: as above
[6] = target: flag-COMP epidermal growth factor (EGF) repeat domain (aa 84-261) (mouse) (UniProt Q9R0G6); test: as above
[7] = target: flag-COMP type III repeat domain (aa 266-520) (mouse) (UniProt Q9R0G6); test: as above
[8] = target: flag-COMP, full-length mouse COMP with N-terminal FLAG, in COS-7 cells (mouse) (UniProt Q9R0G6); test: as above
[9] = target: Flag-COMP, full-length mouse COMP with N-terminal FLAG, in HEK293A cells (mouse) (UniProt Q9R0G6); test: co-IP; HEK293A cells co-transfected with full-length Flag-COMP and 6 × His-prohibitin 2 fragments; precipitated with Flag antibody against control IgG; blot with His antibody

In the case of “Cartilage oligomeric matrix protein (COMP), endogenous in VSMCs (from UniProt P35444 20-755)”, the binding [1] is reported as “binds” and the binding [2] is reported as “binds”.

“ATP synthase subunit β, endogenous in VSMCs (from UniProt P10719 47-529)” was tested, and the binding [3] was “no binding”.

For “Prohibitin 2, endogenous in VSMCs (from UniProt Q5XIH7 1-299)”, the binding [3] was “binds”.

With “Prohibitin 2, full-length rat, from pcDNA3.1-prohibitin 2 in COS-7 cells (from UniProt Q5XIH7 1-299)” the binding [4] was “no binding”, the binding [5] was “no binding” and the binding [6] was “binds”. For the same substance, the binding [7] was “no binding” and the binding [8] was “binds”.

With “6 × His-prohibitin 2 C-terminus (aa 201-299) (from UniProt O35129 201-299) (domain or fragment)” the binding [9] was “binds”.
